# Measurements as given in ChEMBL document CHEMBL4888484, “Replenishing the malaria drug discovery pipeline: Screening and hit evaluation of the MMV Hit Generation Library 1 (HGL1) against asexual blood stage Plasmodium falciparum ,using a nano luciferase reporter read-out” (2022).
# Out of some 150,000 compounds screened, about 540 (0.36%) showed an effect of 50% or more. The list shows a part of the results.
# System: Plasmodium falciparum
# Assay: Primary screen in NF54 nanoGlo assay, in single point, at 2uM, 72h; a lower Z score goes with more inhibition
# Type: functional, Erythrocyte
# Details: timepoint 72 hour
Compound,% Inhibition [%],Z score
OC[C@@]12CCC[C@@H]1CN(c1nccc(C(F)(F)F)n1)C2,-5,0.82
O=C(c1cc(-c2ccccc2F)n[nH]1)N(Cc1ccccn1)Cc1ccco1,-29,3.7
CCN(CC)C(=O)[C@@H]1CCCN1C(=O)CCCc1ccccn1,38,-5.55
N#Cc1csc(CN2CCCC[C@H]2C(=O)N2CCOCC2)c1,-6,1.04
Cc1cc(-c2ccc(C(=O)NCCc3noc(CO)n3)cc2)cc(C)n1,-4,0.83
Cc1ccc(CNc2ncncc2-c2nc(-c3ccccc3)no2)cc1,-1,0.22
O=C1N[C@@](c2ccccc2)(C(F)(F)F)C(=O)N1CN(C1CCCC1)C1CC1,-5,0.48
Cn1ncc2c(N[C@H]3CCc4ccccc43)ncnc21,-9,0.75
COc1ccc(-c2csc3ncnc(NCC(=O)N4CCCC4)c23)cc1,4,-0.67
Cc1sc2ccccc2c1-c1cn(Cc2ccccn2)nn1,-5,0.56
Cn1cnc(O[C@H]2CCCc3ccccc32)cc1=O,1,-0.13
CCC1(CC)CN(S(=O)(=O)c2cnc3c(cnn3C)c2)C1,-17,2.63
Cc1nc(CC(=O)NC2Cc3ccccc3C2)cs1,-15,2.55
C(=C\c1ccccc1)/Cn1cc(-c2nc(-c3cn4ccccc4n3)no2)nn1,-1,0.1
CN(C)C(=O)c1cnc(N2CC3CC4CC3C2C4O)c(Cl)c1 (configuration not stated),-8,1.05
Nc1ccn(Cc2ccccc2)c(=O)n1,6,-0.93
Cc1nc(N)nc(NCCN2CCC[C@H](CO)C2)c1Cl,-7,0.87
Cc1cccc(C(=O)N2N=C(c3cccnc3)C[C@]2(O)C(F)(F)F)c1O,-8,1
CCN1C(=O)Cc2cc(NS(=O)(=O)Cc3ccccc3)ccc21,38,-5.52

Compound,% Inhibition [%],Z score
COC(=O)c1ccccc1Nc1nc(-c2ccccc2)cc(-c2ccccc2)n1,1,-0.1
O=C1CCC(c2ccccc2)(c2ccccc2)CN1Cc1ncc[nH]1,5,-1.09
Cn1nccc1C(=O)Nc1ccc(-c2cc3cc(Cl)ccc3[nH]2)cc1,9,-1.01
Cc1n[nH]cc1CN(C)S(=O)(=O)c1cn[nH]c1,-8,1.46
Cc1nc(N2CCN(C(=O)C3CCCC3)CC2)cc(-n2ccnc2)n1,-19,3.34
CC(O)CN(CC(=O)N1CCc2sccc2C1COc1ccccc1)CC1CCCO1 (configuration not stated),-11,1.2
CN1CCC(N2CCN(Cc3ccc4cc(O)ccc4c3)CC2)CC1,90,-8.27
CCc1sc(C(=O)NS(C)(=O)=O)cc1C,-4,0.71
CCc1nccc(-c2c(-c3ccccc3)ncn2CCN2CCOCC2)n1,-6,0.83
C[C@@H](C(=O)N1CCCC1)S(=O)(=O)c1cccc(Br)c1,3,-0.39
COCCNC(=O)c1csc(CN(CCC(c2ccccc2)c2ccccc2)Cc2ccc(Cl)cc2)n1,3,-0.43
CCc1nc(C)cc(N2CCC[C@H](N(C)Cc3ccccn3)CC2)n1,-12,2
O=C(NCc1ccc(Cl)cc1)c1csnn1,-7,1.17
Cc1cc(C)n(CCNC(=O)c2cnc(-c3ccccc3)nc2)c(=O)n1,-8,1.39
Cc1nnsc1C(=O)NCc1cccnc1-c1ccco1,-7,1.4
C[C@H]1Cc2ccccc2N1C(=O)c1ccc(N2CCOCC2)nc1,-2,0.3
CCCC1(CO)CCN(C[C@H]2CCCN2CC)CC1,-10,1.23
C[C@@H]1Oc2ccc(NC(=O)NCc3cnn(C)c3)cc2NC1=O,-8,0.69
CN(c1ccccc1NC(=O)c1nccnc1N)C1CCCC1,-2,0.28

Compound,% Inhibition [%],Z score
Cc1cccc(-c2noc(N3CCOCC3)c2CN(C(=O)c2cccc(F)c2)C2CC2)c1,2,-0.26
Cn1c(=O)c2c(O)c(Cc3ccccc3)c(O)nc2n(C)c1=O,2,-0.33
CCc1nccn1[C@H]1CCCN(CCOc2ccccc2OC)C1,3,-0.63
CC1(C)CCCC1NC(=O)[C@H]1CCC(=O)N1 (some centres not stated),-16,1.33
COc1cc(-n2cnnn2)ccc1NC(=O)C1CCN(C(C)=O)CC1,-11,2.18
COc1c(C)cc([C@H]2CCc3nc(C(=O)N4CCN(C(c5ccccc5)c5ccccc5)CC4)cn3C2)cc1C,-4,0.38
Cc1noc(C)c1S(=O)(=O)N1CC(=O)N2CCc3ccccc3[C@@H]2C1,0,-0.05
CCCN1CCN(CC(=O)NCC(C)C)c2cc(F)ccc21,-5,0.93
COc1ccccc1N1CCN(C(=O)C2CCN(c3cc(-n4ccnc4)ncn3)CC2)CC1,-11,2.12
CCN(Cc1ccco1)C(=O)c1ccc(=O)[nH]n1,6,-1.11
Cc1nnc(CN(C)C[C@H](C)N2CCOCC2)s1,1,-0.2
COc1cc(C(=O)NC2CC2)ccc1OCc1csc(C)n1,-5,0.96
CO[C@@H](CNC(=O)c1cn(C)nn1)c1ccco1,16,-2.05
O=C(C#Cc1ccc2c(c1)OCO2)NC[C@]1(O)CCOC1,-7,0.59
Cc1csc(NC(=O)[C@@H]2COCC(=O)N2Cc2ccccc2)n1,-5,0.82
Cc1cnoc1C(=O)OCc1noc(C(C)(C)C)n1,-7,1.1
CC(C)c1ncc(C(=O)NC[C@H]2CN(S(C)(=O)=O)CCO2)cn1,-6,0.98
Cc1cncc(CNC(=O)N2CCCC3(CCOCC3)C2)c1,-3,0.43
